Consider one molecule from paper PMC9189065 (Cell, 2022).

In this assay the target is mouse ZNG1, full length, tag-free (mouse, UniProt Q8VEH6). Nature of the assay: SEC. (SEC sorts molecules by how far they enter the pores of the column.)
Sequence of UniProt Q8VEH6 (Q8VEH6 whole entry): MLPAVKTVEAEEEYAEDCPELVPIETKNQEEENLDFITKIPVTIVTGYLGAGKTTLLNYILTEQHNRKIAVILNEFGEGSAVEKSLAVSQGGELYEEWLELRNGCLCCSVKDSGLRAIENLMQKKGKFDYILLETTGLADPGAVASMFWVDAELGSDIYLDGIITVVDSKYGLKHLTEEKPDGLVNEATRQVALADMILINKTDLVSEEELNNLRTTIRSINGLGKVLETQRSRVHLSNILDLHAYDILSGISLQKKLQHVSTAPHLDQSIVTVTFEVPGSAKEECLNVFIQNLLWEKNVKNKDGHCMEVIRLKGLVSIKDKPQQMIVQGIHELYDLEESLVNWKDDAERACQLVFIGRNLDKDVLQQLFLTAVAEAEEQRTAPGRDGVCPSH

B1: mouse METAP1([…]) (domain or fragment)
chain: not shown
Regarding B1, the binding result was “binds”.
